Laboratory results from US5763430A, “Method of treating a viral infection by administering a steroid compound” (priority 1995, dated 1998).

Test system: L1210 lymphoblastic leukemia cells
Test: mouse model of leukemia
Assay type: in vivo

SMILES: CC(C)[C@@H](CC[C@@H](C)[C@H]1CC[C@H]2[C@@H]3[C@H](O)C[C@H]4C[C@@H](NCCCNCCCCNCCCN)CC[C@]4(C)[C@H]3CC[C@]12C)OS(=O)(=O)O [Compound 1436]
- hematological profile: near normal hematocrit, with evidence of a robust granulocyte count
